From the supplement of paper PMC10126150
Values marked as one replicate rest on one cluster of the flow cell; about a third of the high ones do not repeat.

System: ATP
Assay: switch fluorescence ratio, 500 uM ATP over buffer (Cy3 cluster intensity, sum of 5 cycles each) (fold (ratio)); higher = stronger signal-on switching upon ATP binding; sequences stand for … in TCGTCGGCAGCGTCAGATGTGTATAAGAGACAGTTTTTTTTTTTTTTTTTTTTTTTTT…TC
Settings: aptamer strand: ATP DNA aptamer (quencher-CACCTGGGGGAGTATTGCGGAGGAAGG + anchor), 100 nM annealed; ATP concentration: 500 uM; one replicate
Procedure, shortened: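 Exposure to 500 uM ATP lasted 15 min at 22 °C before imaging, and a selection-buffer image was taken beforehand, for Cy3-labelled switching-strand clusters on a modified Illumina MiSeq flow-cell annealed to 100 nM quencher-labelled ATP aptamer. Five buffer/ATP cycles were run with NaOH stripping and re-annealing between them. The fluorescence ratio per cluster is summed target-cycle over summed buffer-cycle Cy3 intensity, averaged per switch-domain sequence. Clusters outside 100-1000 RFU were excluded.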

| Sequence | switch fluorescence ratio |
| --- | --- |
| ACAGCGGTAC | 3.62 |
| GGAGAAACTT | 0.989 |
| AGATTGAGGC | 1.01 |
| TCAATGCTTG | 1.02 |
| TTGAAAAACT | 1.79 |
| AGCGGGAAGT | 1.08 |
| AGTACTGGAC | 1.19 |
| CGGGGCAACA | 1 |
| GGCTCAAGCA | 0.926 |
| TAGCCATACG | 1.35 |
| AGTGGTATCC | 1.03 |
| GTCAAAAGCT | 1.06 |
| AATCCCGTG | 1 |
| AGGATCTGGG | 0.973 |
| TGGGGTGGAA | 1.03 |
| GGGTCAATGA | 0.988 |
| AATATCGCTC | 1.02 |
| TTTCTTACGT | 0.975 |
| GGATCAAATC | 1.02 |
| CCCTCAAAAG | 1.11 |
| GGGTGTGTAG | 1.05 |
| AGATTCTGTG | 1.01 |
| GAGAGTTAGC | 1.05 |
| ACTTTTAATC | 0.964 |
| TCTTGCGATC | 1.77 |
| ATGAGATTCT | 1.01 |

| Sequence | switch fluorescence ratio |
| --- | --- |
| TGCAGGGTCG | 0.984 |
| AATCTGCTCA | 1.01 |
| GGATTGTCAT | 1.01 |
| GGCAGTCACT | 1.02 |
| GGGGATCAAA | 1 |
| CTCACTTTGG | 1 |
| CGTTTCAAG | 1.02 |
| ACTACATAAT | 1.06 |
| CGTCGGTATT | 1.02 |
| GGCAACGTGG | 0.967 |
| TGCGTGCA | 1.06 |
| AGCTGCTGTG | 0.979 |
| TTTCGTAAAG | 0.98 |
| TGGTAAGGGA | 1 |
| CAGCTCTGG | 0.986 |
| AAGTGTCTAT | 0.988 |
| TGAAACCCC | 1.55 |
| CGCCGCGAAG | 1.91 |
| CGTCAGAGGA | 0.998 |
| TCCCTTAGCA | 1.04 |
| TTGGTCCGT | 0.967 |
| TAAGTATGC | 0.975 |
| GGACTCCTGT | 0.972 |
| GATCTCTCTT | 1 |
| TTTTGTGC | 1 |
| AGCTGTAATA | 0.996 |

| Sequence | switch fluorescence ratio |
| --- | --- |
| AAAACGCTC | 1.02 |
| CGACCGGGAT | 2.04 |
| GGTGAATTAT | 1.24 |
| CCCGTTAAAG | 1.01 |
| GGGCAGTCGA | 0.992 |
| ACTAATTTTT | 1.05 |
| CGCATCCA | 1.14 |
| ACAAGGCCGT | 1.07 |
| ACCAATAGCT | 1.04 |
| ACAAGTTGG | 0.973 |
| GAACAGGCGA | 1.07 |
| TTTCTTATCT | 0.975 |
| AGGCACAGTC | 0.996 |
| ATTACGACGA | 1.15 |
| TCCATCACGT | 1.06 |
| GAGGCAGGAG | 1.15 |
| TGCGATCACA | 1.04 |
| TGAGAGTTGA | 1.02 |
| GCTCGAACCC | 1.08 |
| CTCAGTAGGT | 0.977 |
| ATCGAGGGCA | 1.01 |
| AACGACTGTA | 1.04 |
| TCCTCTGGGA | 1.81 |
| GACGCTCAGG | 1.13 |
| GAAGTCAACT | 0.999 |
| AGCTATGATG | 1.01 |

| Sequence | switch fluorescence ratio |
| --- | --- |
| GCCGTCGCAA | 1.31 |
| AGTGGTAGAC | 0.959 |
| GCCCACTCTC | 0.971 |
| AATCGGTGAC | 0.996 |
| ACTCAGATCG | 1.05 |
| TATAGGGG | 0.99 |
| TTAGATGTGT | 1.01 |
| TTGACCTTCT | 1.6 |
| TAGAGCTCCG | 1.04 |
| GCCGGTGGG | 1.02 |
| AGTGGAGTGC | 1.09 |
| ACGTCAGGG | 1.08 |
| GTACTTTTCA | 0.958 |
| GTTTGCCGGT | 0.945 |
| CGAGATGGAC | 1.02 |
| ACAGCTCTTG | 0.969 |
| AGTAAGGGG | 1.02 |
| GGATTGACAT | 1.03 |
| TAAATCGGAA | 1 |
| GAGTCTCTAT | 1 |
| TAGATAAAGA | 0.968 |
| ATGTGTGCAG | 0.949 |
| GCCAGCACGG | 1 |
| TTCACTTCG | 0.989 |
| TCGAGGAGAA | 0.983 |
| TGAGGGCTCT | 0.971 |

| Sequence | switch fluorescence ratio |
| --- | --- |
| GTGATCCTTG | 1 |
| ACCACAGTCC | 1.1 |
| AACGGCTAGA | 0.95 |
| TGGTCAAGCG | 1.04 |
| GCATAGGAAT | 0.994 |
| TAGTGTTCTT | 0.957 |
| TTTTTGCGGA | 0.987 |
| CTGACCCCCA | 1.65 |
| AGGAAGTCGA | 1.01 |
| AGTTGGAACC | 0.987 |
| AATCTAAAAC | 1.03 |
| CGGCTGCAAG | 1.08 |
| ACTAACTATG | 1.1 |
| AGGTGTAGGT | 0.975 |
| GCGTGACCCT | 1.07 |
| ATTCATCTA | 1 |
| TTGGGCACCC | 0.982 |
| ATGGTGGGAT | 0.976 |
| ACTACCCCGC | 2.01 |
| TGGACGCGTT | 0.995 |
| CCCGGGCTGG | 1.03 |
| TACTTCAGGG | 0.986 |
| TGGGAACCCC | 1.37 |
| TACAGTTAAA | 0.973 |
| TTGGCTTAAT | 1.02 |
| AACGGGGTA | 1.02 |

| Sequence | switch fluorescence ratio |
| --- | --- |
| GATTGGTGAC | 1.04 |
| ACCGGAACAA | 2.02 |
| TGAATGCAGA | 0.975 |
| CGCGGCGGCA | 1.01 |
| AAAACTCGGA | 0.953 |
| GTCCCAGTAT | 1.02 |
| ATCAAAATAT | 1.13 |
| TTGCTTCCAA | 0.974 |
| CGGGAGGACC | 1.01 |
| ACAAACGATC | 1.17 |
| CAATGACCTT | 1.22 |
| CAGAACCCGA | 1.03 |
| TGAGTTTACG | 1.05 |
| ACCGAATCCA | 1.1 |
| GAGGAAGGTA | 1.03 |
| CACAAGTCTG | 1.01 |
| GATGGGTAC | 1.66 |
| CGCCTTTTCC | 1.15 |
| TATCGTGGGC | 1.01 |
| GGGGTTGTTC | 0.99 |
| ATTTGCTAGG | 1 |
| CCGGCTGAAA | 1.28 |
| GCAGCGTCTG | 0.996 |
| TCGGGCCTCG | 1.02 |
| ATAGCAGGCA | 1.02 |
| CATGGGACTG | 1.07 |

| Sequence | switch fluorescence ratio |
| --- | --- |
| GAGCCGCCAA | 1.46 |
| TTCAATTCTC | 1.07 |
| CTTGCAGAGT | 1.01 |
| TTACCTGCCG | 1.13 |
| CACAGCGGGG | 1.02 |
| CACCGACCAA | 2.32 |
| TTTCAATCGG | 1 |
| GGGAAGACTG | 1.01 |
| TAGGAGTCGG | 0.983 |
| CTGGATCTGG | 1.04 |
| TGGATGGTAT | 1.01 |
| GCAGATAGAA | 0.992 |
| TGCTACGGAG | 1.04 |
| TAATGGCTGC | 1.05 |
| GCAGTTTAAG | 0.99 |
| AATACTCG | 1.13 |
| CGGCGAACGG | 1 |
| GGGGGAGTAT | 0.974 |
| CTCGGCCTGG | 1.01 |
| TTTCGAGGCC | 1.1 |
| CGATGAAATG | 1.02 |
| ACGGACCTAT | 1.28 |
| ACGTAGTACG | 1.06 |
| TCGTTAGTAT | 0.968 |
| ATCTTCTGTG | 1.01 |
| ACGGGCGCAC | 1.08 |

| Sequence | switch fluorescence ratio |
| --- | --- |
| CCGTTCTGTG | 0.999 |
| GCTTAGGTAC | 1.06 |
| GTAAGGCGCG | 0.983 |
| CGCGTGGTTC | 1.03 |
| TGCGTTGCCC | 1.01 |
| CGCATAGCTC | 3.82 |
| CTTATCCGAT | 1.01 |
| ATCATATTTT | 0.946 |
| AGTGAATAAT | 1.09 |
| TGCCCCGGAT | 0.999 |
| ATATCTAGCT | 1.01 |
| ATCGGCAGTG | 1.01 |
| TAGACCTCGC | 1.01 |
| GCAAGAGTGT | 1.02 |
| AGTAAGACGA | 1.08 |
| GTATGTGCGC | 0.965 |
| GACAATCAAA | 1 |
| CGAGGTACTC | 1.05 |
| CGAGTTTAAA | 1.02 |
